Source: US8580254B2, “Anti-IGF antibodies” (Boehringer Ingelheim International GmbH, priority 2007, dated 2013)

Experiments:
SK-N-MC = assay: Ewing sarcoma-derived cell line growth assay; assay type: cell-based, human; conditions: medium containing 10% FCS; 120 hours; relative to humanized isotype control antibody; FIG. 5B
Experimental: (§1) The Ewing sarcoma-derived cell lines TC-71 (ATCC #ACC516) and SK-N-MC (ATCC #HTB86) are plated in 96-well plates at a density of 1000 cells per well in DMEM medium containing 1×NEAA, 1× sodium pyruvate, 1× glutamax and 10% fetal calf serum (FCS) and incubated overnight at 37° C. and 5% CO2 in a humidified atmosphere. The following day, a serial dilution of test antibody and humanized isotype control antibody (a humanized IgG1 antibody targeted to CD44-v6) are added to the cells. The typical concentrations used are 10, 3.33, 1.11, 0.37, 0.13 and 0.04 μg/ml and each dilution is performed in triplicate wells. The cells plus antibody are then incubated for 120 hours after which time the relative cell number in each well is determined using the CellTiter-Glo luminescent cell viability assay (Promega). Luminescence is recorded using a XFluor GENios Pro 4 and for data analysis the mean value from triplicate wells is taken and fitted by iterative calculations using a sigmoidal curve analysis program (Graph Pad Prism) with variable Hill slope.

TC-71 = assay: Ewing sarcoma-derived cell line growth assay; assay type: cell-based, human; conditions: medium containing 10% FCS; 120 hours; relative to humanized isotype control antibody; FIG. 5A
Experimental: as §1

[1] = Terminal half life in cynomolgus monkeys; assay type: in vivo; conditions: cynomolgus monkey plasma, n = 3
Experimental: Single intravenous (bolus) antibody administrations of 1 and 10 mg/kg (in a formulation containing 25 mM Na citrate pH 6, 115 mM NaCl, 0.02% Polysorbate 20 (Tween)) are given to cynomolgus monkeys (n=3 for each administrated dose). 0.5, 2, 8, 24, 48, 72, 168, 336 and 504 hours after each application a blood sample is taken and the human antibody concentration in the plasma determined by ELISA.

B1: antibody 40186: fully human IgG1/Igλ antibody binding IGF-1 and IGF-2; heavy chain SEQ ID NO:25, light chain SEQ ID NO:26 (antibody, listed as Homo sapiens)
heavy: QVELVESGGGLVQPGGSLRLSCAASGFTFSNYWMHWVRQAPGKGLEWVSGISGWSSWTYYADSVKGRFTISRDNSKNTLYLQMNSLRAEDTAVYYCARFGIDAYTKVYFDYWGQGTLVTVSS[in this place human IgG1 constant region]
light: DIELTQPPSVSVAPGQTARISCSGDNIPLKYVSWYQQKPGQAPVLVIHDDNKRPSGIPERFSGSNSGNTATLTISGTQAEDEADYYCQSWASTGVVFGGGTKLTVLGQPKAAPSVTLFPPSSEELQANKATLVCLISDFYPGAVTVAWKGDSSPVKAGVETTTPSKQSNNKYAASSYLSLTPEQWKSHRSYSCQVTHEGSTVEKTVAPTECS
effect on growth of SK-N-MC cells (SK-N-MC): dose-dependent inhibition of cell growth | effect on growth of TC-71 cells (TC-71): dose-dependent inhibition of cell growth | Terminal Half Life ([1]; 1 mg/kg single intravenous (bolus)): 10.7 ± 1.6 days | Terminal Half Life ([1]; 10 mg/kg single intravenous (bolus)): 12 ± 1.4 days
